# The list shows a part of the results.
# B1: Langerin CRD (Homo sapiens), Q9UJ71 (protein)
# chain: QVVSQGWKYFKGNFYYFSLIPKTWYSAEQFCVSRNSHLTSVTSESEQEFLYKTAGGLIYWIGLTKAGMEGDWSWVDDTPFNKVQSVRFWIPGEPNNAGNNEHCGNIKAPSLQAWNDAPCDKTFLFICKRPYVPSEPSAWSHPQFEK
# Tests used:
# Assay in all cases: glycan array binding signal (z-score within array); higher = stronger binding
# Conditions in all cases: glycan notation: IUPAC condensed, linker removed
# [1] = target: Gal(b1-4)GlcNAc(b1-3)Gal(b1-4)GlcNAc(b1-3)Gal(b1-4)GlcNAc
# Method in brief: (§1)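 Arrays were curated from the Consortium for Functional Glycomics database, 3228 in total, and kept only where the protein sequence was available. Binding is expressed as a within-array Z-score. This score was averaged across arrays of the same protein sequence at different concentrations or buffers and across linkers, and negative values can be read as non-binding.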
# [2] = target: Gal(b1-4)GlcNAc(b1-3)Gal(b1-4)[Fuc(a1-3)]GlcNAc(b1-3)Gal(b1-4)[Fuc(a1-3)]GlcNAc
# Method in brief: as §1
# [3] = target: Gal(b1-4)GlcNAc(b1-3)GalNAc
# Method in brief: as §1
# [4] = target: Gal(b1-4)GlcNAc(b1-3)[Gal(b1-4)GlcNAc(b1-6)]Gal(b1-4)GlcNAc
# Method in brief: as §1
# [5] = target: Gal(b1-4)GlcNAc(b1-3)[GlcNAc(b1-6)]Gal(b1-4)GlcNAc
# Method in brief: as §1
# [6] = target: Gal(b1-4)GlcNAc(b1-6)Gal(b1-4)GlcNAc
# Method in brief: as §1
# [7] = target: Gal(b1-4)GlcNAc(b1-6)Gal(b1-4)GlcNAc(b1-6)GalNAc
# Method in brief: as §1
# [8] = target: Gal(b1-4)GlcNAc(b1-6)GalNAc
# Method in brief: as §1
# [9] = target: Gal(b1-4)GlcNAc(b1-6)[Gal(b1-3)]GalNAc
# Method in brief: as §1
# Gal3S(b1-3)GalNAc = target: Gal3S(b1-3)GalNAc
# Method in brief: as §1
# Gal3S(b1-3)GlcNAc = target: Gal3S(b1-3)GlcNAc
# Method in brief: as §1
# [10] = target: Gal3S(b1-3)[Fuc(a1-4)]GlcNAc
# Method in brief: as §1
# Gal3S(b1-4)Glc = target: Gal3S(b1-4)Glc
# Method in brief: as §1
# Gal3S(b1-4)Glc6S = target: Gal3S(b1-4)Glc6S
# Method in brief: as §1
# Gal3S(b1-4)GlcNAc = target: Gal3S(b1-4)GlcNAc
# Method in brief: as §1
# Gal3S(b1-4)GlcNAc6S = target: Gal3S(b1-4)GlcNAc6S
# Method in brief: as §1
# [11] = target: Gal3S(b1-4)[Fuc(a1-3)]Glc
# Method in brief: as §1
# Gal3S4S(b1-4)GlcNAc = target: Gal3S4S(b1-4)GlcNAc
# Method in brief: as §1
# Gal3S6S(b1-4)GlcNAc = target: Gal3S6S(b1-4)GlcNAc
# Method in brief: as §1
# Gal3S6S(b1-4)GlcNAc6S = target: Gal3S6S(b1-4)GlcNAc6S
# Method in brief: as §1
# Gal4S(b1-4)GlcNAc = target: Gal4S(b1-4)GlcNAc
# Method in brief: as §1
# Gal4S6S(b1-4)GlcNAc = target: Gal4S6S(b1-4)GlcNAc
# Method in brief: as §1
# Gal6S(b1-4)Glc = target: Gal6S(b1-4)Glc
# Method in brief: as §1
# Gal6S(b1-4)Glc6S = target: Gal6S(b1-4)Glc6S
# Method in brief: as §1
# Gal6S(b1-4)GlcNAc = target: Gal6S(b1-4)GlcNAc
# Method in brief: as §1
# Gal6S(b1-4)GlcNAc6S = target: Gal6S(b1-4)GlcNAc6S
# Method in brief: as §1
# GalNAc(a1-3)Gal = target: GalNAc(a1-3)Gal
# Method in brief: as §1
# GalNAc(a1-3)GalNAc = target: GalNAc(a1-3)GalNAc
# Method in brief: as §1
# GalNAc(b1-3)Gal = target: GalNAc(b1-3)Gal
# Method in brief: as §1
# [12] = target: GalNAc(b1-3)Gal(a1-4)Gal(b1-4)GlcNAc
# Method in brief: as §1
# GalNAc(b1-3)GalNAc = target: GalNAc(b1-3)GalNAc
# Method in brief: as §1
# GalNAc(b1-4)GlcNAc = target: GalNAc(b1-4)GlcNAc
# Method in brief: as §1
# Glc(a1-4)Glc = target: Glc(a1-4)Glc
# Method in brief: as §1
# Glc(a1-6)Glc(a1-6)Glc = target: Glc(a1-6)Glc(a1-6)Glc
# Method in brief: as §1
# Glc(b1-4)Glc = target: Glc(b1-4)Glc
# Method in brief: as §1
# Glc(b1-6)Glc = target: Glc(b1-6)Glc
# Method in brief: as §1
# GlcA(b1-3)Gal = target: GlcA(b1-3)Gal
# Method in brief: as §1
binder,measurement,setting,value
B1,glycan array binding signal (z-score),[1],-0.662
same,glycan array binding signal (z-score),[2],-0.361
same,glycan array binding signal (z-score),[3],-0.345
same,glycan array binding signal (z-score),[4],-0.551
same,glycan array binding signal (z-score),[5],0.314
same,glycan array binding signal (z-score),[6],-0.378
same,glycan array binding signal (z-score),[7],-0.586
same,glycan array binding signal (z-score),[8],-0.486
same,glycan array binding signal (z-score),[9],-0.489
same,glycan array binding signal (z-score),Gal3S(b1-3)GalNAc,-0.432
same,glycan array binding signal (z-score),Gal3S(b1-3)GlcNAc,-0.494
same,glycan array binding signal (z-score),[10],-0.296
same,glycan array binding signal (z-score),Gal3S(b1-4)Glc,-0.325
same,glycan array binding signal (z-score),Gal3S(b1-4)Glc6S,-0.45
same,glycan array binding signal (z-score),Gal3S(b1-4)GlcNAc,-0.527
same,glycan array binding signal (z-score),Gal3S(b1-4)GlcNAc6S,-0.22
same,glycan array binding signal (z-score),[11],-0.252
same,glycan array binding signal (z-score),Gal3S4S(b1-4)GlcNAc,-0.278
same,glycan array binding signal (z-score),Gal3S6S(b1-4)GlcNAc,-0.421
same,glycan array binding signal (z-score),Gal3S6S(b1-4)GlcNAc6S,-0.366
same,glycan array binding signal (z-score),Gal4S(b1-4)GlcNAc,-0.279
same,glycan array binding signal (z-score),Gal4S6S(b1-4)GlcNAc,-0.313
same,glycan array binding signal (z-score),Gal6S(b1-4)Glc,1.81
same,glycan array binding signal (z-score),Gal6S(b1-4)Glc6S,4.01
same,glycan array binding signal (z-score),Gal6S(b1-4)GlcNAc,2.06
same,glycan array binding signal (z-score),Gal6S(b1-4)GlcNAc6S,6.72
same,glycan array binding signal (z-score),GalNAc(a1-3)Gal,-0.433
same,glycan array binding signal (z-score),GalNAc(a1-3)GalNAc,-0.498
same,glycan array binding signal (z-score),GalNAc(b1-3)Gal,0.049
same,glycan array binding signal (z-score),[12],-0.356
same,glycan array binding signal (z-score),GalNAc(b1-3)GalNAc,2.47
same,glycan array binding signal (z-score),GalNAc(b1-4)GlcNAc,-0.362
same,glycan array binding signal (z-score),Glc(a1-4)Glc,-0.157
same,glycan array binding signal (z-score),Glc(a1-6)Glc(a1-6)Glc,-0.188
same,glycan array binding signal (z-score),Glc(b1-4)Glc,-0.315
same,glycan array binding signal (z-score),Glc(b1-6)Glc,-0.395
same,glycan array binding signal (z-score),GlcA(b1-3)Gal,-0.387
